# Test results reported in the supplement of paper PMC12217912.
# This is one part of the list. The full chains were built here from the parent and the listed change. Inactive controls read about 0.05.
# B1: TEV protease; numbered along this chain (parent)
# chain: MGESLFKGPRDYNPISSSICHLTNESDGHTTSLYGIGFGPFIITNKHLFRRNNGTLVVQSLHGVFKVKDTTTLQQHLVDGRDMIIIRMPKDFPPFPQKLKFREPQREERICLVTTNFQTKSMSSMVSDTSCTFPSGDGIFWKHWIQTKDGQCGSPLVSTRDGFIVGIHSASNFTNTNNYFTSVPKNFMELLTNQEAQQWVSGWRLNADSVLWGGHKVFMVKPEEPFQPVKEATQL
# Variants of: B1
# Assay: raw area under fraction-flipped curve 0-4 h after induction (AUC4h, not background-subtracted), DNA-recorder readout of cleavage of the substrate (dimensionless); higher = more cleavage of the substrate by the protease variant
# Details: temperature: 34 °C; time window: 0-4 h after rhamnose induction
# Protocol: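 In vivo DNA recorder in E. coli TOP10(DE3) ΔrhaA at 34 °C. Each TEVp single-site mutant (parent TEVp 0) is paired with a single-site variant of the 7-mer TEVs (canonical ENLYFQ|S). The substrate sits between flexible linkers in a Bxb1-sfGFP-TEVs-SsrA fusion, so cleavage stabilises Bxb1 and speeds flipping of a recombination array, read by NGS. The value is the raw area under the fraction-flipped curve over 0-4 h after rhamnose induction (AUC4h), with ≥20 reads per time point. It is not background-subtracted; inactive controls average about 0.047.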
# 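Also: Bxb1 expression induced with 0.2% (w/v) L-rhamnose at OD600 near 0.5, cultures sampled hourly, flipped fraction per protease–substrate barcode pair counted by paired-end Illumina sequencing.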
Variant,area with substrate ENLAFQS,area with substrate ENLCFQS,area with substrate ENLDFQS,area with substrate ENLEFQS,area with substrate ENLFFQS,area with substrate ENLGFQS,area with substrate ENLHFQS,area with substrate ENLIFQS,area with substrate ENLKFQS,area with substrate ENLMFQS,area with substrate ENLNFQS,area with substrate ENLPFQS,area with substrate ENLSFQS,area with substrate ENLLFQS,area with substrate ENLQFQS,area with substrate ENLRFQS,area with substrate ENLWFQS,area with substrate ENLVFQS,area with substrate ENLTFQS
F38A,0.0832,0.0616,0.0663,0.0577,0.0721,0.101,0.0495,0.0771,0.0694,0.0682,0.0683,0.0496,0.0514,–,–,–,–,–,–
F38L,0.0683,–,0.0615,0.0645,0.0699,0.0388,0.0628,0.0695,0.0701,0.0711,0.0544,0.0624,0.0629,0.0678,0.0687,0.0581,0.0676,–,–
F38M,0.0599,0.0682,0.0584,0.0647,0.0772,–,0.0603,0.0778,0.0698,0.0734,0.0597,0.048,0.0555,0.0616,–,0.0583,0.0539,–,–
H47V,0.0617,0.0692,0.0614,0.0953,0.0669,–,0.0676,0.0631,0.0659,–,0.0611,0.0464,0.0556,0.0657,0.0076,0.0489,0.0582,–,–
H47I,0.0318,0.0611,0.0462,–,0.0511,0.0609,0.0593,0.0651,0.0624,–,0.0676,0.063,0.0636,0.0557,0.0612,–,0.0751,–,–
D27T,0.0649,0.0617,0.0615,0.0124,0.0775,–,–,–,0.088,–,0.0676,0.0611,–,0.0785,0.065,0.0686,–,–,–
T55Y,0.0631,–,0.0579,0.0646,0.0791,0.0606,0.0689,0.0678,0.0815,0.0708,–,0.0583,0.0711,0.0723,0.0625,–,0.0659,–,–
F49C,0.0568,0.067,0.0619,0.0367,0.0663,0.07,0.0605,0.0614,0.0532,0.0455,0.0567,–,0.043,0.0219,0.0549,0.0613,0.0536,0.0698,–
I19F,0.0669,–,0.055,0.0725,0.0701,–,0.0528,0.0641,0.0661,0.0608,0.0632,0.0672,0.07,0.0656,0.0742,0.043,0.0674,–,0.0701
I19L,0.0596,0.0781,0.0545,0.0602,0.107,0.0638,0.0708,0.0798,0.0875,0.071,–,0.0464,0.0656,0.0894,0.072,0.0834,0.0638,0.105,–
F41L,0.0569,0.0733,0.0619,0.0585,0.0835,–,0.0735,0.0781,0.0761,–,0.0591,0.05,0.0546,–,0.0704,0.0741,–,–,–
F41V,0.049,0.0787,0.0624,0.059,0.0843,–,0.072,0.105,0.0704,–,0.0696,0.0503,0.0604,0.0777,0.0718,0.0713,0.0736,0.116,–
